The structures appear in SMILES notation. In all, about 13,000 compounds were measured (“IFI”: median about 4, highest 2% from about 17 on). The list shows a part of the results.

The test can be described thus: GSK_TCMDC: Inhibition Frequency Index (IFI). The number of non-kinase HTS assays where a compound showed > 50 % inhibition, expressed as a percentage of the number of such assays in which the compound was tested (-0 is zero). Format: functional.
`CCSc1ccccc1CON1C(=N)N=C(N)NC1(C)C` came in with an IFI of 5.56%.

`CCOC(=O)C1=C(C)NC(C)=C(C(=O)OCC)C1(C(=O)OCc1ccccc1)c1cccc(C(F)(F)F)c1` returned an IFI of 2.38%.

Turning to `Cc1ccccc1C1CCN(C2CCC(NC(=O)c3ccc(-c4ccccn4)s3)CC2)CC1` (stereo unspecified), the IFI was 7.02%.

The compound `CCOc1cc(C(=O)N[C@@H](Cc2ccccc2)[C@H](O)CNCc2cc(OC)cc(OC)c2)cc(N2CCCC2=O)c1` gave an IFI of 2.88%.

For the compound `O=C(/C=C/c1ccccc1Cl)Nc1ccc(Br)c(OCCN2CCN(CCN3CCOCC3)CC2)c1`, the IFI is 4.29%.

In turn, `Clc1ccc2c(NCCc3ccccc3)ccnc2c1` returned an IFI of 5.19%.

In turn, `N#Cc1ccc2[nH]cc(C(=O)CCCCCN(Cc3ccccc3)Cc3ccccc3)c2c1` yielded an IFI of 1.52%.

Consider `COc1cc(F)c2nccc([C@@H](O)CN3CCC(NCc4ccc5c(n4)NC(=O)CS5)C(F)C3)c2c1` (stereo partly specified), for which the IFI is 6.67%.

`COc1ccc2ncc(C#N)c(CCN3C[C@H](CNCc4ccccc4)[C@H](O)C3)c2n1`: the IFI is 1.96%.

In the case of `CCOC(=O)c1c(C)noc1Nc1cccc(C)c1C`, the IFI is 0.74%.

Compound `Cc1nc(-c2ccc(-c3ccc(NC(=O)c4coc5ccc(N6CC(C)NC(C)C6)cc45)cc3)c(C)c2)no1` (stereo unspecified) gave an IFI of 5.76%.

`Cc1cc(NCCC(=O)Nc2ccccc2)nc(NCc2ccccc2C)n1` came in with an IFI of 13.9%.

`c1ccc(-c2csc(Nc3nc4cc5c(cc4s3)OCO5)n2)nc1`: the IFI stood at 8.26%.

For the compound `Oc1c(Cl)cc(-c2ccccc2)cc1CNC1CCCCC1`, the IFI is -0%.

`O=C(/C=C/c1ccc(Cl)c(Cl)c1)NCCCCCN1CCC(NC(=S)Nc2ccc(Cl)c(Cl)c2)CC1` yielded an IFI of 11.9%.

Turning to `O=C(c1ccc(O)c(-c2cc(Cl)cc(Cl)c2)c1)N(CCO)CCO`, the IFI turned out to be 0.74%.

As to `c1ccc(Nc2nc(-c3ccccn3)cs2)nc1`, the IFI worked out at 8.51%.

As for `O=C(CN1CCN(C(C(=O)Nc2cc(C(F)(F)F)ccc2Cl)c2ccccc2)CC1)NC1CC1` (stereo unspecified), the IFI came to 2.74%.

As for `CCCCN1Cc2c(n(CC(=O)Nc3ccccc3)c3cc(-c4ccccc4)nn3c2=O)C1=O`, the IFI was -0%.

The compound `O=C(NCc1ccc(F)cc1)Nc1ccc(-c2ccc(-c3nc4ccccc4[nH]3)cc2)cc1` came in with an IFI of 6.78%.

In the case of `CC(C)c1ccc(C=CC(=O)N2CCC(CCN3CCC(c4c[nH]c5ccccc45)CC3)CC2)cc1`, the IFI is 7.19%.

As to `O=C(/C=C/c1ccc(Cl)c(Cl)c1)NCCCCN1CCCN(C(=O)Nc2ccc(C(F)(F)F)cc2)CC1`, the IFI was determined as 9.92%.

`Cc1ccc(NC(=O)NC2CCN(c3ccnc4ccccc34)CC2)cc1`: the IFI worked out at 3.03%.

`CC(=NNC(=N)N)C(=O)Nc1ccc(Cl)c(Cl)c1`: the IFI was determined as 4.35%.

Consider `Cc1cc2nc(-c3cc(-c4cccc(NS(C)(=O)=O)c4)cnc3N)[nH]c2cc1C`, for which the IFI was 5.97%.

The compound `COc1cc2nc(N3CCC(CNC(=O)c4ccc(-c5ccccc5)cc4)CC3)nc(N)c2cc1OC` yielded an IFI of 2.22%.

`O=C(Nc1cccc([N+](=O)[O-])c1)Nc1ccc(Cl)c(C(F)(F)F)c1` registered an IFI of 10%.

For `COC(=O)c1c(C#N)c(OC)cc(O)c1CSC[C@@H](CN1CCCCC1)Nc1nc(-c2ccc([N+](=O)[O-])cc2)cs1`, the IFI was 4.76%.

The compound `CC(CCc1ccccc1)NCC(O)c1cccc([N+](=O)[O-])c1` (stereo unspecified) displayed an IFI of 2.94%.

With `O=C(/C=C/c1ccc(Br)cc1)NCCCCCN1CCC(c2c[nH]c3ccccc23)CC1`, the IFI was 5.47%.

In turn, `CC[C@H](C)[C@@H](C(=O)N1CCOCC1)N1CC[C@H](NS(=O)(=O)CC(C)(C)c2ccc(Cl)cc2)C1=O` registered an IFI of 0.74%.

With `COc1ccc2c(NN=Cc3ccc(N(C)C)cc3)ccnc2c1`, the IFI turned out to be 5.8%.

Regarding `CC(=O)Nc1nc(C(=O)Nc2ccc(-c3ccc(-c4nc5cc(F)ccc5[nH]4)cc3)cc2)cs1`, the IFI was found to be 5.22%.

As to `COc1ccc(NC(=O)Nc2cccc(-c3cccc(-c4nc5cccc(C)c5[nH]4)c3)c2)cc1`, the IFI was 2.04%.

With `COCCCNC(=O)[C@H]1CNCCN1C(=O)c1ccccc1`, the IFI came to 0%.

Turning to `CN1CCN(CC(=O)Nc2ccc(-c3csc(-c4nc5ccccc5[nH]4)c3)cc2)CC1`, the IFI is 8.04%.

Compound `CCCCCCCCCN(CCC)C(=O)[C@@H]1OC(C(=O)OC(c2ccccc2)c2ccccc2)=C[C@H](NC(=O)OC(C)(C)C)[C@H]1NC(C)=O` had an IFI of -0%.

`O=C(NCc1ccc(C(=O)N2CCC(N3CCCCC3)CC2)cc1)c1cc(-c2cccc(C(F)(F)F)c2)ccc1O` registered an IFI of 0.72%.

For the compound `C#CCCC(=O)Nc1cccc(-c2cccc(-c3nc4cc(C(F)(F)F)ccc4[nH]3)c2)c1`, the IFI amounted to 6.19%.

For `CCc1sc(CN(CCCNc2cc(=O)c3ccccc3[nH]2)Cc2sc(CC)c(Br)c2-c2ccsc2)c(-c2ccsc2)c1Br`, the IFI turned out to be 5.04%.

The compound `CN1CCCC(COc2cc3c(cc2Br)CCN3C(=O)Nc2ccc(-c3ccncc3)c(Cl)c2)C1` (stereo unspecified) returned an IFI of 9.85%.

Compound `COc1cc(NC(=O)/C=C/c2cccc3ccoc23)ccc1OCCN(C(C)C)C(C)C` had an IFI of 2.99%.

In turn, `Nc1ncc(-c2ccc3nccc(-c4ccncc4)c3c2)cc1S(=O)(=O)N1CCCCC1` returned an IFI of 10.5%.

`COc1ccc2nc(-c3ccc(C(=O)NCCCN4CCN(c5cc(Cl)ccc5OC)CC4)cc3OC)[nH]c2c1` yielded an IFI of 1.52%.

`Cn1nccc1C(=O)NCCNCc1ccc(-c2ccc(-c3nc4cc(C(F)(F)F)ccc4[nH]3)cc2)cc1` gave an IFI of 10.8%.

In the case of `O=C(N[C@@H](Cc1ccccc1)C(=O)NCc1cccc(C(F)(F)F)c1)c1ccc(O)c(-c2ccc(Cl)c(Cl)c2)c1`, the IFI was found to be 3.65%.

The compound `COc1cccc(CCNc2nc(NCc3ccccc3)c3cc(OC)c(OC)cc3n2)c1` returned an IFI of 5.93%.

In turn, `COC(=O)c1noc(C)c1I` registered an IFI of -0%.

Compound `CC[C@H](C)CNC(=O)c1cncc(-c2ccc(CNCCOc3ccccc3)cc2)c1` returned an IFI of 3.28%.

Regarding `N#Cc1ccc(N2CCN(Cc3ccc(-c4ccc(-c5nc6cc(C(F)(F)F)ccc6[nH]5)cc4)cc3)CC2)nc1`, the IFI was found to be 3.96%.

The compound `COc1ccc(CNC2CCN(C)CC2)cc1-c1ccc(S(=O)(=O)NCCc2ccccn2)cc1` registered an IFI of 0%.

Turning to `Cc1cc(=NN=Cc2cccc(F)c2)c2cccc(C)c2[nH]1`, the IFI was 0.76%.

As for `S=c1nc(-c2ccccc2)n2ccsc2n1`, the IFI amounted to 0%.

As to `CCOc1cc(C(=O)N[C@@H](Cc2ccccc2)[C@H](O)CNC(C)(C)c2cccc(OC)c2)cc(N2CCCS2(=O)=O)c1`, the IFI stood at 2.11%.

Take `CC(C)(C)c1cc([N+](=O)[O-])cc(C(=O)Nc2ccccc2C(F)(F)F)c1O`: the IFI was found to be 22.7%.

On to `CN(C)C(C)(C)CN(Cc1ccc(-c2ccc(C(F)(F)F)cc2)cc1)C(=O)Cn1c(CCc2cccc(F)c2F)nc(=O)c2ccccc21`, for which the IFI came out at 8.45%.

Values taken from ChEMBL document CHEMBL1157539, “Thousands of chemical starting points for antimalarial lead identification” (Nature, 2010).
